Like-named read-outs stand apart in the source and are kept apart here.

Assay [1] has as its target 4-1BB on transfected NF-κB Jurkat cells (UniProt Q07011 24-255, limits assumed). Kind of assay: cell-based or functional assay.
Assay [2] has as its target T1, 4-1BB (coated on ELISA plate) (UniProt Q07011 24-186, limits assumed). Kind of assay: ELISA on coated 4-1BB, supernatant. The protocol: (§1) After centrifugation, culture supernatant was collected for determination of expression and binding activity of the 4-1BBL variants. To determine expression of the 4-1BBL variants, a 96-well plate (flat bottom) was coated with 2 μg/ml anti-His tag antibody overnight. The pre-coated plate was then blocked with 5% milk in PBS at room temperature (RT) for 1 hour. After blocking, 30 μl of bacterial supernatant was added to each well of the plate, and the plate was incubated for 1 hour at RT. After the incubation, anti-c-myc-HRP was added, and the expression level of 4-1BBL variants can be determined by measuring OD450 in a plate reader. To determine binding activity of the 4-1BBL variants, a 96-well plate (flat bottom) was coated with 0.5 μg/ml of 4-1BB overnight. The pre-coated plate was then blocked with 5% milk in PBS at RT for 1 hour. After blocking, 30μ of bacterial supernatant was added to each well of the plate, and the plate was incubated for 1 hour at RT. After the incubation, anti-c-myc-HRP was added, and the 4-1BB-binding activity of 4-1BBL variants can be determined by measuring OD450 in a plate reader.
(§2) The 4-1BB-binding activity was measured using the same methods described above. […] After the incubation, the luminance signal was detected to determine the 4-1BB reporter activity.
(An ELISA detects its analyte on a solid surface through an enzyme-linked reagent.)

Assay [3] has as its target T1, 4-1BB (coated on ELISA plate). Kind of assay: ELISA, binding OD450 / expression OD450. How it is done: as §1
For assay [4] the target is unchanged. The experiment in a line: ELISA, binding OD450 / expression OD450. The protocol: as §1
The source holds these as a separate data set.

Assay [5] shares this target. Kind of assay: ELISA, binding OD450 / expression OD450. The protocol: as §1, §2
This is another data set of the same source.

Assay [6] shares this target. Kind of assay: ELISA on coated 4-1BB, supernatant, OD450. The protocol:
as §1

Assay [7] shares this target. Kind of assay: ELISA on coated 4-1BB, supernatant, OD450. The protocol: as §1
The source holds these as a separate data set.

Assay [8] shares this target. The experiment in a line: ELISA, binding/expression ratio relative to WT. How it is done: as §1, §2
Assay [9] shares this target. Kind of assay: ELISA, binding OD450 / expression OD450, after 45 °C 30 min. How it is done: as §1
Assay [10] shares this target. The description is as above. The protocol:
as §1
This is another data set of the same source.

For assay [11] the target is unchanged. The experiment in a line: ELISA on coated 4-1BB, supernatant after 45 °C 30 min, OD450. The protocol: as §1
The target is the same in assay [12]. Described as above. How it is done: as §1
This is another data set of the same source.

In assay [13] the target is T2, 4-1BB on activated human T cells (human, UniProt Q07011 24-255).
T2 construct: whole, on cells
Kind of assay: flow cytometry on activated T cells, class against wild type. How it is done: The activated T cell (whole cell) binding activity was determined as follows. T cells were isolated from a human PBMC donor by Ficoll-Paque® density gradient centrifugation. The isolated T cells were activated by CD3/CD28 Dynabeads® at a cell-to-bead ratio of 1:2 for 4 days to induce 4-1BB expression. 5×10⁴/well of activated T cells were incubated with the G4Fc-4-1BBL variants at indicated concentrations for 30 minutes at 4° C., and then incubated with PE-conjugated anti-human Fc secondary antibody for 30 minutes at 4° C. The binding activity was analyzed by a CytoFlex™ flow cytometer.
For orientation: A flow cytometer gives signals particle by particle.

B1: wild-type 4-1BBL (peG4Fc_4-1BBLv2; SEQ ID NO: 3) (Fc fusion)
chain: [human IgG4 Fc with S228P (EU numbers) skipped]GGGGSGGGGSRQGMFAQLVAQNVLLIDGPLSWYSDPGLAGVSLTGGLSYKEDTKELVVAKAGVYYVFFQLELRRVVAGEGSGSVSLALHLQPLRSAAGAAALALTVDLPPASSEARNSAFGFQGRLLHLSAGQRLGVHLHTEARARHAWQLTQGATVLGLFRVT
notes: also called G4Fc-4-1BBL-wt; wild-type G4Fc-4-1BBL
With B1, in [1], the “Reporter (RLU)” value turned out to be 3640 RLU. Further, the “Reporter (vs wt)” value in assay [1] is 1. Further, the Reporter/Expression ratio in assay [1] turned out to be 2860. The “Binding (OD450)” value in assay [2] was found to be 2.21 OD450. The “Binding / Expression ratio (25 degrees)” value in [3] amounted to 1; in [4], 1.11. Moreover, the Binding/Expression ratio in [5] was determined as 1.74. Besides, the results for the “Binding (25 °C)” value in assay [6] and in assay [7] were 1.86 and 1.65, respectively. Further, the “Binding (vs wt)” value in assay [8] amounted to 1. Also, the “Binding / Expression ratio (45degrees)” value in assay [9] worked out at 1.28; in assay [10] it was 1.5. In addition, the “Binding (45 °C)” value in [11] and in assay [12] was 1.5 in each case.

B2: 2E10 (Fc fusion)
IgG4 Fc-4-1BBL variant fusion: [human IgG4 Fc with S228P (EU numbers) skipped]GGGGSGGGGSRQGMFAQLVAQNVLLIDGPLSWYTDPGLAGVSLTGGLSYKEDTKELVVAKAGVYYVFFQLELRRVVAGEGSGSVSLALHLQPLRSAAGAAALALTVDLPPASSEARNSAFGFQGRLLHLSAGQRLGVHLHTEARARHAWQLSQGATVLGLFRVT
notes: also called G4Fc-4-1BBL-2E10; G4Fc-4-1BBL variant 2E10
As for B2, in assay [13], the binding result is “binds”.

B3: 3B5 (Fc fusion)
IgG4 Fc-4-1BBL variant fusion: [human IgG4 Fc with S228P (EU numbers) skipped]GGGGSGGGGSRQGMFAQLVAQNVLLIDGPLSWYSDPGLAGVSLTGGLSYKEDTKELVVAKAGVYYVFFQLELRRVVAKEGSGSVSLALHLQPLRSAAGAAALALTVDLPPASSEARNSAFGFQGRLLHLSAGQRLGVHLHTEARARHAWQLTQGQTVLGLFRVT
notes: also called G4Fc-4-1BBL-3B5; G4Fc-4-1BBL variant 3B5
On to B3, for which the binding result in assay [13] was “binds”.

B4: 3F8 (Fc fusion)
IgG4 Fc-4-1BBL variant fusion: [human IgG4 Fc with S228P (EU numbers) skipped]GGGGSGGGGSRQGMFAQLVAQNVLLIDGPLSWYNDPGLAGVSLTGGLSYKEDTKELVVAKAGVYYVFFQLELRRVVAGQGSGSVSLALHLQPLRSAAGAAALALTVDLPPASSEARNSAFGFQGRLLHLSAGQRLGVHLHTEARARHAWQLTQGATVLGLFRVT
notes: also called G4Fc-4-1BBL-3F8; G4Fc-4-1BBL variant 3F8
As to B4, the binding result in [13] is recorded as “binds”.

B5: 3G7 (Fc fusion)
IgG4 Fc-4-1BBL variant fusion: [human IgG4 Fc with S228P (EU numbers) skipped]GGGGSGGGGSRQGMFAQLVAQNVLLIDGPLSWYTDPGLAGVSLTGGLSYKEDTKELVVAKAGVYYVFFQLELRRVVAGEGSGSVSLALHLQPLRSAAGAAALALTVDLPPASSEARNSAFGFQGRLLHLSAGQRLGVHLHTEARARHAWQLTQGRTVLGLFRVT
notes: also called G4Fc-4-1BBL-3G7; G4Fc-4-1BBL variant 3G7
With B5, the binding result in assay [13] is “binds”.

B6: 5G10 (Fc fusion)
IgG4 Fc-4-1BBL variant fusion: [human IgG4 Fc with S228P (EU numbers) skipped]GGGGSGGGGSRQGMFAQLVAQNVLLIDGPLSWYSDPGLAGVSLTGGLSYKEDTKELVVAKAGVYYVFFQLELRRVVAGQGSGSVSLALHLQPLRSAAGAAALALTVDLPPASSEARNSAFGFQGRLLHLSAGQRLGVHLHTEARARHAWQLTQGATVLGLFRVT
notes: also called G4Fc-4-1BBL-5G10; G4Fc-4-1BBL variant 5G10
Consider B6, for which the binding result in assay [13] is recorded as “binds”.

The values above are taken from patent US20260193315A1 (FBD BIOLOGICS, published 2026).
